The target in the test is PP1 (PP1G 1–323, full-length PP1 phosphatase catalytic subunit) (UniProt P63087). Briefly: cell-based or functional assay.
Sequence of UniProt P63087 (P63087 whole entry): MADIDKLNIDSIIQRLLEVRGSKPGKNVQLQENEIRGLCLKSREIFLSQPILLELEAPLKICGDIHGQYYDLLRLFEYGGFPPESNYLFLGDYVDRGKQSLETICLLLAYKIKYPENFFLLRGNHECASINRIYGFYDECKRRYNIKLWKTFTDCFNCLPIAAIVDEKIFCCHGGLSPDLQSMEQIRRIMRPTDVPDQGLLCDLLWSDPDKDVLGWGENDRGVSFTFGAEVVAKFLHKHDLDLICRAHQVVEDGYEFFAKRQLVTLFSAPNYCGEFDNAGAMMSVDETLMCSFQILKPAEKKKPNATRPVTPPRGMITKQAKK

B1: human PPP1R15A^[…]-MBP (domain or fragment)
chain: EAECPPCIPPPSAFLKAWVYWPGEDTEEEEDEEEDEDSDSGSDEEEGEAEASSSTPATGVFLKSWVYQPGEDTEEEEDEDSDTGSAEDEREAETSASTPPASAFLKAWVYRPGEDTEEEEDEDVDSEDKEDDSEAALGEAESDPHPSHPDQRAHFRGWGYRPGKETEEEEAAEDWGEAEPCPFRVAIYVPGEKPPPPWAPPRLPLRLQRRLKRPETPTHDPDPETPLK[… about 80 residues …]APIPALTQTLPS
B1: the “EC50 of PPP1R15A^325-636 for the initial velocity of eIF2α-P dephosphorylation (PP1 0.625 nM, G-actin 1.5 µM)” value was in the range of 5 to 10 nM.

The values are drawn from PMC5429092, “PPP1R15A-mediated dephosphorylation of eIF2α is unaffected by Sephin1 or Guanabenz” (eLife, 2017).
